# Reference: the BET-seq Pho4 binding data (Le et al. 2018)
# Some of the results follow. The energies were worked out here from pooled read counts, against the library average; single values are noisy.
# Molecular target: T1, Pho4 (S. cerevisiae) (UniProt P07270)
# T1 sequence: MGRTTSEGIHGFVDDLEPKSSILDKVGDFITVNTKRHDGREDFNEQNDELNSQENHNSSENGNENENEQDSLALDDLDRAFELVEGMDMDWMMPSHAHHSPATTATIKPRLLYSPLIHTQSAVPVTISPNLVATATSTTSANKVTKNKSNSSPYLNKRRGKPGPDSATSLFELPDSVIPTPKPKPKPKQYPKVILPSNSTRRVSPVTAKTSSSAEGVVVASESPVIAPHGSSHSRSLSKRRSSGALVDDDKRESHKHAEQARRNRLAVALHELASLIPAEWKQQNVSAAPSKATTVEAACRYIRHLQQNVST
# Assay: relative binding free energy (BET-seq); higher = weaker binding
# Settings: reference: library average
row,Sequence,relative binding free energy [kcal/mol]
1,ATATTCACGTGCGGTT,0.24
2,AGGGGCACGTGCATGA,-0.13
3,GCAGTCACGTGTTGTA,0.07
4,ATAATCACGTGGATTA,0.29
5,TTCAGCACGTGAATGG,0.29
6,TCTTTCACGTGTGAGG,0.2
7,AGTGACACGTGTGAGG,-0.03
8,CTTTTCACGTGAAGTT,0.29
9,AATGGCACGTGATGGC,-0.07
10,TCGGACACGTGGGTCG,-0.06
11,AATATCACGTGTTTGG,0.1
12,CTTGGCACGTGGGATT,-0.17
13,ATTCTCACGTGGTTTA,0.19
14,AGTATCACGTGTGATA,0.21
15,ATTTTCACGTGTTTCA,0.05
16,GTGTGCACGTGTTAAA,0.02
17,TTAGTCACGTGCCAGG,0.06
18,CATGGCACGTGGGATG,-0.32
19,TAGAGCACGTGGTCAG,-0.25
20,GGGAACACGTGATGGG,0.2
21,GGTACCACGTGTATTT,0.03
22,AGTCTCACGTGTTTTT,0.17
23,GTTGGCACGTGTTATG,-0.03
24,TTAGTCACGTGTTAAT,0.17
25,GTGCTCACGTGTTATG,0.26

row,Sequence,relative binding free energy [kcal/mol]
1,TATGACACGTGGGTGG,-0.05
2,TGGGGCACGTGGGTGT,-0.2
3,GGGTACACGTGTTTTA,0.17
4,TAATGCACGTGTGGAA,0.07
5,AAAGGCACGTGGTCAG,-0.24
6,TCGGTCACGTGGGGAA,0.03
7,AGGACCACGTGATGGT,0.06
8,GTGTACACGTGTTGTT,0.07
9,CGTGACACGTGTAGTG,-0.09
10,TTTAACACGTGAATGA,0.24
11,TTGAGCACGTGAAAGG,0.28
12,AGGTTCACGTGAGTAG,0.39
13,TGTATCACGTGTTTGG,0.09
14,TGGTGCACGTGATCTG,0.04
15,TTAAACACGTGGTTAG,-0.05
16,TCGGGCACGTGCTTTT,-0.18
17,GTGTTCACGTGGATGC,0.24
18,GGATGCACGTGAGTTT,0.35
19,GTAGGCACGTGGAGGG,-0.1
20,TTTTGCACGTGAAGCT,0.09
21,AACATCACGTGTTTGT,0.08
22,CTAGACACGTGGGGAG,-0.17
23,TCAAGCACGTGGAGTT,0.09
24,TAAATCACGTGAGGGA,0.37
25,GGGGACACGTGTAGCG,0.03

row,Sequence,relative binding free energy [kcal/mol]
1,GGTGGCACGTGACGCA,0.01
2,TCATGCACGTGAGTGG,0.12
3,AAGGGCACGTGTAGTG,-0.02
4,GCAGTCACGTGGGATT,0.03
5,TACTGCACGTGGTGCG,-0.18
6,GTTGTCACGTGTGATT,0.2
7,TATTGCACGTGTGATC,0.15
8,TATGTCACGTGTTTGG,0.18
9,TCTTTCACGTGATGTA,0.3
10,TTTACCACGTGTTAGT,-0.08
11,GCGGTCACGTGGTAAT,0.15
12,TGATACACGTGGAGTA,0.05
13,TAGATCACGTGGTCTG,-0.06
14,AAATTCACGTGTGTTT,0.31
15,TTGTACACGTGCGGGC,0.08
16,AGTAACACGTGAGGGT,0.25
17,TGCGTCACGTGTAAGG,0.12
18,CGGTTCACGTGTAGTT,0.22
19,CGGTCCACGTGGGGTT,-0.08
20,AGAATCACGTGAGTTG,0.37
21,ATCGTCACGTGTGTTG,0.09
22,AGATACACGTGAGTTT,0.34
23,TCTTTCACGTGTAGTT,0.28
